According to publication PMC6919601, “Identification of Plasmodium dipeptidyl aminopeptidase allosteric inhibitors by high throughput screening” (PLoS ONE, 2019):
Hit rate of the full screen: of about 110,000 compounds, about 230 (0.21%) showed an effect of 50% or more. This is one part of the list.

Biological target: DPAP1 (Plasmodium falciparum, UniProt Q8IIJ9)
Test: primary screen, percent inhibition; read by cleavage of a fluorogenic dipeptide substrate; higher = more effect of the substance
Parameters: species or system P. falciparum D10 trophozoite lysates; single well
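Note: 30 min substrate incubation versus DMSO and 10 µM JCP410 controls.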

Sequence of DPAP1 (Q8IIJ9 whole entry, looked up): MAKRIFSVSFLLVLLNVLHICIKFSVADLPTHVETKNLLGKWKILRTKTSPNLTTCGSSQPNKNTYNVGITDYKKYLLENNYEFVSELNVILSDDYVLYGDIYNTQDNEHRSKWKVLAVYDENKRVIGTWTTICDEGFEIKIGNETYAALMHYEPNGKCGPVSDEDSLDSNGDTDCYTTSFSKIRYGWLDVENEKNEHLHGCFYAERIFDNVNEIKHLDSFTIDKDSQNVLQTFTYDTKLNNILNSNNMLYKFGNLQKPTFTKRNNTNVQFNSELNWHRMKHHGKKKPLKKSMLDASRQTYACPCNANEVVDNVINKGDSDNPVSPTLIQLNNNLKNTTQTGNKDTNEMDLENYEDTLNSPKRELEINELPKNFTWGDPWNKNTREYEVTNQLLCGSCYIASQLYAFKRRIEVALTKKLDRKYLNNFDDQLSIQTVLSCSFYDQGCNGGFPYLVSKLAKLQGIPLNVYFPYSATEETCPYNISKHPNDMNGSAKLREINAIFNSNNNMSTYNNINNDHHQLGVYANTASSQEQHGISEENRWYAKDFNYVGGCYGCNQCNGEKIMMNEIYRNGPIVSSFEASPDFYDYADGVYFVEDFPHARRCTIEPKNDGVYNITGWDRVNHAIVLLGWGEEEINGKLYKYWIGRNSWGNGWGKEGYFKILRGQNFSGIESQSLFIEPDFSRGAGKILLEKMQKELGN

First: CCC(C)NC(=O)CN(C)c1nn2c(=O)cc(C)nc2s1 (stereo not shown)
Second: Cc1nn(CC(=O)NCc2cccs2)c(=O)c2cccn12
The “% Inhibition @ 10 uM” value of the first is higher: 3% for the first, -0.542% for the second.

Compared with `Cc1onc(-c2ccccc2Cl)c1C(=O)NC1=NCCS1`, `O=C1NC(=S)S/C1=C/c1ccc(-c2ccccc2Cl)o1` is higher in “% Inhibition @ 10 uM” value: -1.85% for the first, 5.37% for the second.

First: O=C1CC(c2ccccc2Cl)Sc2ccccc2N1 (stereo not shown)
Second: CCCOC(=O)CSC1=C(C#N)C(c2ccccc2Cl)CC(=O)N1 (stereo not shown)
The “% Inhibition @ 10 uM” value of the first is lower: -2.67% for the first, 0.345% for the second.

Compared with `Cc1cc2c(c(O)n1)C(c1ccccc1)C(C#N)=C(N)O2` (stereo not shown), `COc1cccc(C2C(C#N)=C(N)OC3=C2C(=O)CC(C)(C)C3)c1` (stereo not shown) is higher in “% Inhibition @ 10 uM” value: -0.366% for the first, 0.385% for the second.

Compared with `O=[N+]([O-])c1ccc(N2CCN(Cc3c(F)cccc3F)CC2)cc1`, `Cc1ccccc1N1CCN(Cc2c(C)[nH]c3ccccc23)CC1` is higher in “% Inhibition @ 10 uM” value: -7.34% for the first, -4.58% for the second.

First: Cc1[nH]c2ccccc2c1C1CCN(S(=O)(=O)c2ccc(Br)cc2)CC1
Second: Cc1cccc(N2CCN(S(=O)(=O)c3ccc(Cl)cc3)CC2)c1C
The “% Inhibition @ 10 uM” value of the first is lower: 0.66% for the first, 1.92% for the second.

Compared with `CSC1=NSC2=NC(=O)/C(=C\c3ccc4c(c3)OCO4)C(=N)N12`, `O=C1/C(=C\c2ccc3c(c2)OCO3)S/C(=N\c2ccccc2)N1Cc1cccnc1` is lower in “% Inhibition @ 10 uM” value: 1.39% for the first, -3.69% for the second.

Compared with `Clc1ccc(-c2nc(-c3ccncc3)no2)c(Cl)c1`, `c1csc(-c2noc(CSc3nc4ccccc4[nH]3)n2)c1` is lower in “% Inhibition @ 10 uM” value: 3.32% for the first, -6.71% for the second.

First: CCOC(=O)c1ccc2c(c1)C1C=CCC1C(c1ccc(F)cc1)N2 (stereo not shown)
Second: Cc1[nH]c(-c2ccc(F)cc2)cc1C(=O)NC1CCN(Cc2ccccc2)CC1
The “% Inhibition @ 10 uM” value of the first is lower: -5.11% for the first, 0.229% for the second.

Going from `CCOc1ccccc1C(=O)Nc1ccc(NC(C)=O)cc1` to `CC(=O)Nc1ccc(C(=O)CSc2nc3ccccc3s2)cc1`, the “% Inhibition @ 10 uM” value falls from 1.49% to -0.25%.

Going from `CCn1c(C(O)(c2ccccc2)c2ccccc2)nc2ccccc21` to `CCN1C(C(=O)c2ccccc2)=C(OC(=O)c2ccc(F)cc2)c2ccccc2S1(=O)=O`, the “% Inhibition @ 10 uM” value rises from -3.27% to 3.74%.

First: CC(Cc1ccccc1)N/C=C1/CC(=O)NC1=O (stereo not shown)
Second: O=C1N/C(=C/c2ccc(C(F)(F)F)cc2)C(=O)N1c1ccccc1
The “% Inhibition @ 10 uM” value of the first is higher: 5.37% for the first, 2.82% for the second.

Going from `CC(C)C[C@H](NC(=O)OCc1ccc(OC(F)F)cc1)C(=O)NCC#N` to `COc1ccc(CNC(=O)C2=Cc3sc(C)c(C)c3CS2)cc1`, the “% Inhibition @ 10 uM” value rises from -1.41% to 16.4%.

First: COc1ccc(NC(=O)NC2CCCCC2)c(OC)c1
Second: Cc1ccc(NC(=O)C(=O)NC2CCCC2)cc1C
The “% Inhibition @ 10 uM” value of the first is higher: 2.82% for the first, 1.29% for the second.

Going from `CC(Cc1ccco1)NS(=O)(=O)c1csc(C(N)=O)c1` (stereo not shown) to `O=C(NCc1cccs1)C1CCCN1S(=O)(=O)c1ccc2[nH]c(-c3ccccc3)nc2c1` (stereo not shown), the “% Inhibition @ 10 uM” value rises from -4.55% to 7.44%.

Compared with `Cc1ccc(/C=C/C2=NC(=C\c3ccccc3F)/C(=O)O2)cc1`, `COc1cc(/C=C2\C(=O)ON=C2C)ccc1OCCc1ccccc1` is lower in “% Inhibition @ 10 uM” value: -0.945% for the first, -3.63% for the second.

Going from `O=C(O)C1C(C(=O)Nc2cccc(Br)c2)C2C=CC1C21CC1` (stereo not shown) to `O=C(O)C1CCC(c2ccccc2)CC1` (stereo not shown), the “% Inhibition @ 10 uM” value rises from 3.01% to 3.03%.

Compared with `Cc1cc(NC=C2C(=O)CCCC2=O)no1`, `Brc1ccc2c(c1)c1c3c(nccn32)CCC1` is lower in “% Inhibition @ 10 uM” value: 4.01% for the first, -8.53% for the second.

Going from `CC(=O)N1C(=N)S/C(=C/c2cc3ccccc3nc2Sc2ccccc2)C1=O` to `Nc1ccc(S(=O)(=O)Nc2nc3ccccc3nc2Nc2ccccc2)cc1`, the “% Inhibition @ 10 uM” value falls from 0.275% to -0.0372%.

Going from `C=CCOCC(O)CSc1nc(C)cc(C)n1` (stereo not shown) to `C=CCOC(=O)C1=C(C)NC(=O)NC1c1cn(-c2ccccc2)nc1-c1ccc(OCC)cc1` (stereo not shown), the “% Inhibition @ 10 uM” value falls from 3.48% to -1.93%.

Compared with `CC1=CCC2C(=O)N(c3ccc(C(=O)N4CCCCCC4)cc3)C(=O)C2C1` (stereo not shown), `Cc1cc2ccccc2n1CCNC(=O)c1ccc(S(=O)(=O)N2CCCCC2)cc1` is higher in “% Inhibition @ 10 uM” value: -3.77% for the first, -0.472% for the second.

Compared with `COc1cccc(C(=O)/N=c2\sc(C)c(-c3ccccc3)n2C)c1`, `CCN(Cc1ccccc1)C(=O)c1ccccc1C` is higher in “% Inhibition @ 10 uM” value: -1.43% for the first, 4.03% for the second.

First: CC(C)(Oc1ccc(Cl)cc1)C(=O)Nc1cc(Cl)ccc1O
Second: Cc1ccc(NC(=O)COc2ccc(Cl)cc2C)cc1F
The “% Inhibition @ 10 uM” value of the first is lower: -10.8% for the first, 0.755% for the second.

Going from `CCOc1ccc(N2CCc3c2nc2ccccc2c3N)cc1` to `Brc1ccc(Cn2cnc3ccccc32)cc1`, the “% Inhibition @ 10 uM” value rises from -1.85% to 0.162%.

Going from `O=c1c2cccnc2n(Cc2cc(=O)n3cc(Cl)ccc3n2)c(=O)n1CCc1ccccc1` to `Cc1ccc(CNC(=O)Cn2nc(-c3ccccc3)ccc2=O)cc1`, the “% Inhibition @ 10 uM” value rises from -1.66% to 0.514%.

Going from `COc1ncnc2c1sc1nc(N3CCOCC3)c3c(c12)CCCC3` to `O=C(c1ccc2c(Cl)c3c(nc2c1)CCCC3)N1CCN(C(=O)c2ccco2)CC1`, the “% Inhibition @ 10 uM” value falls from 6.05% to 4.41%.

Compared with `O=C(Cc1cccc2ccccc12)NCCOc1ccccc1Cl`, `COc1ccccc1CNC(=O)CN(c1ccc(Cl)c(Cl)c1)S(=O)(=O)c1ccccc1` is higher in “% Inhibition @ 10 uM” value: -4.35% for the first, 0.323% for the second.

First: O=S(=O)(c1ccccc1)N1CCN(Cc2ccc(Cl)cc2Cl)CC1
Second: Clc1ccc2nc(NC3CCN(Cc4ccccc4)CC3)c3nncn3c2c1
The “% Inhibition @ 10 uM” value of the first is higher: 8.98% for the first, 4.33% for the second.

Compared with `O=C(O)CNC(=O)C/N=C/c1c(O)oc2ccccc2c1=O`, `Cc1cccc(-c2nc(CS(=O)CC(=O)NCCc3ccccc3)c(C)o2)c1` (stereo not shown) is higher in “% Inhibition @ 10 uM” value: -5.38% for the first, 2.37% for the second.

First: CCN(CC)C(=O)N1CCN(CCC#N)CC1
Second: CC(=O)c1ccc(N2CCN(CC(C)CCC=C(C)C)CC2)cc1 (stereo not shown)
The “% Inhibition @ 10 uM” value of the first is higher: 0.0345% for the first, -0.132% for the second.

Going from `CCS(=O)(=O)N1CCC2(CC1)OC(=O)C(C)=C2C(=O)N(C)Cc1ccccc1` to `CCOc1ccccc1CN1CCC2(C=Cc3ccccc32)CC1`, the “% Inhibition @ 10 uM” value rises from 1.73% to 1.74%.

Going from `O=C(NCc1ccc2c(c1)OCO2)C1CCN(c2nn3cc(-c4ccc(F)cc4)nc3s2)CC1` to `O=C(NCCCN1CCCC1=O)c1ccc2c(c1)sc1nc(-c3ccc(F)cc3)cn12`, the “% Inhibition @ 10 uM” value falls from -1.58% to -2.07%.

Going from `CCN1CCC(NCc2ccccc2Cl)CC1` to `CCOc1cc2c(cc1OCC)C(c1ccc(Cl)cc1)NCC2` (stereo not shown), the “% Inhibition @ 10 uM” value falls from -0.233% to -8.41%.

First: O=[N+]([O-])c1cccc(Nc2nc(OC(C(F)(F)F)C(F)(F)F)nc(N3CCOCC3)n2)c1
Second: FC(F)(F)c1cccc(-c2nnn3c2nc(Cl)c2ccccc23)c1
The “% Inhibition @ 10 uM” value of the first is higher: 6.43% for the first, 2.97% for the second.

First: COc1ccc(N(CC(=O)Nc2cc(C)ccc2C)S(C)(=O)=O)cc1OC
Second: Cc1ccc(C(C)C)c(OCC(=O)Nc2cc([N+](=O)[O-])ccc2C)c1
The “% Inhibition @ 10 uM” value of the first is higher: -1.43% for the first, -2.59% for the second.

Going from `CCC1NCCNC1=O` (stereo not shown) to `CC1=C(C(=O)OCC2CCCCC2)C(c2ccc(C)cc2)NC(=O)N1` (stereo not shown), the “% Inhibition @ 10 uM” value rises from 3.93% to 15.8%.

First: Cc1ccc(C(=O)Nc2nn(C)c3nc(C)c(Cl)c(C)c23)cc1
Second: Cc1ccc(C(=O)Nc2ncn(Cc3ccccc3)n2)cc1
The “% Inhibition @ 10 uM” value of the first is higher: 7.25% for the first, 4.26% for the second.

Going from `O=C(COCc1cc(-c2ccc3c(c2)OCO3)on1)NCCc1cccs1` to `COc1ccc(OC)c(CCNC(=O)Cn2ncc3c2-c2cc(C)ccc2OC3)c1`, the “% Inhibition @ 10 uM” value falls from 4.11% to -2.34%.

Going from `COc1cccc2c1cc1c(=O)n(CC(=O)N3CCC(C(N)=O)CC3)nc(C)n12` to `CCOC(=O)N1CCN(C(=O)CCCn2nc(C)c3sc4ccccc4c3c2=O)CC1`, the “% Inhibition @ 10 uM” value rises from -3.47% to 0.236%.

Compared with `COC(=O)C1=C(C)N=c2s/c(=C/c3ccc(F)cc3)c(=O)n2C1c1ccc(OC)c(OC)c1` (stereo not shown), `COc1ccc(/C=C/C(=O)NC(=S)Nc2ccccc2O)cc1OC` is higher in “% Inhibition @ 10 uM” value: -3.75% for the first, 2.35% for the second.

Compared with `O=C(Nc1ccc(Cl)c(Cl)c1)c1cccc(C(=O)Nc2ccc(Cl)c(Cl)c2)c1`, `COc1ccc(NS(=O)(=O)c2cccc(C(=O)Nc3ccc(C)cc3)c2)cc1` is higher in “% Inhibition @ 10 uM” value: -3.04% for the first, 4.82% for the second.

Going from `COc1cc(NC(=O)c2nn(C)cc2Br)c(OC)cc1Cl` to `COc1ccc(-c2cc(C(=O)O)c3c(-c4ccc(C)cc4)[nH]nc3n2)c(OC)c1`, the “% Inhibition @ 10 uM” value rises from -2.99% to -0.901%.

First: CCOc1ccc(CCNC(=O)c2ccc3snnc3c2)cc1
Second: COCCCNC(=O)Cc1ccc(-n2c(C)nc3cccnc32)cc1
The “% Inhibition @ 10 uM” value of the first is higher: 3.24% for the first, 1.98% for the second.

First: Cc1ccc(CN2CCN(C(=O)CCN3C(=O)c4ccccc4C3=O)CC2)cc1
Second: O=C(c1ccc(Cn2c(SCc3ccccc3F)nc3ccncc32)cc1)N1CCCC1
The “% Inhibition @ 10 uM” value of the first is lower: -1.84% for the first, 2.99% for the second.

Going from `Cc1ccccc1-c1nn2c(C3COc4ccccc4O3)nnc2s1` (stereo not shown) to `Cc1nnc2sc(/C=C/c3ccccc3)nn12`, the “% Inhibition @ 10 uM” value falls from 45% to -4.67%.

Going from `O=C(Nc1ccc(Cl)cc1)Nc1ccc(S(=O)(=O)Nc2ccc(F)cc2)cc1` to `Cc1ccc(Nc2nc3ccccc3nc2NS(=O)(=O)c2ccc(N)cc2)cc1`, the “% Inhibition @ 10 uM” value rises from -10.8% to -5.5%.

First: CCCCCc1nnc(NC(=O)Nc2ccc([N+](=O)[O-])cc2)s1
Second: CC(C)CCNC(=O)CCc1nnc2n(Cc3ccccc3Cl)c(=O)c3ccccc3n12
The “% Inhibition @ 10 uM” value of the first is lower: -6.07% for the first, 0.981% for the second.

Going from `CCN(CC)S(=O)(=O)c1cccc(S(=O)(=O)c2ccc(Cl)cc2)c1` to `CC1=C(C#N)C(=O)N(C)C(=O)/C1=C/c1ccc(-c2cccc(Cl)c2C)o1`, the “% Inhibition @ 10 uM” value falls from 1.64% to 0.484%.

First: O=C(O)CC(NC(=O)c1ccccc1)c1ccccc1 (stereo not shown)
Second: COc1ccc(C2CC(=O)N3CN(Cc4ccccc4)CSC3=C2C#N)c(OC)c1 (stereo not shown)
The “% Inhibition @ 10 uM” value of the first is lower: -5.86% for the first, 32.1% for the second.

Compared with `CC1(C)CC(=O)C2=C(C1)NC(=O)CC2c1ccccc1C(F)(F)F` (stereo not shown), `COc1ccc(O)c(C2c3[nH]c4ccccc4c3CC3C(=O)N(C)C(=S)N32)c1` (stereo not shown) is higher in “% Inhibition @ 10 uM” value: -0.0508% for the first, 21.2% for the second.
